# Results taken from the supplement of paper PMC8728848.
# The other results are listed elsewhere or left out.
# B1: a L Fucosidase (Streptosporangium roseum), D2B1P1_STRRD (protein)
# chain: MRRKLLLVPAVGLLVIGSIFATQPVASADTPPVYEPTVESLNSHPVPQWFNDDKFGIFIHWGAYSVPAWGPRGSYAEWYGNYMNAGGSATNAHHKATYGQDFNYDAFLQQWKAEKFDPADWVKLFKDAGAKYFVLTSKHHEGMALWDSKSSGRDSVDLGPGRDLAKELFDAARKDEAKLKAGFYYSLYEWYNPAYTGRPATNPYTGAEIPYTGAPGGGDYVKDYMLPQMRELIDGYDPDIIWCDGQWEKPASYWNTAGVIADYYNKALNSGKEVAVANRCKIQSGNLDSPELDFQTPEYTVKPDIDPVKWESSRGIAHSYGYNQNEPEEDHLTSDQLVDSLVDIVSKNGNLLLDIGPKADGTIPEIQRQRLLDIGAWLKANGEAIYGTTYWNRAEEKGGPDDVRYTAKDATLYATALKWPGEQLTLGADLPVDHSTRITMLGSGARLSWSRDEQGRVVVNTPQEAGKHAYVFKIETPGVRSLLRTSSSLAKEIAPGRTISGELTVTNPGKRHTPATKLSLTVPQGWTATLGAPRVRPLGPGESVKVPISVSAPEGVAPAPYTLGLYQRTGRMGTTTALPLTVNRPNLSLGKPATQKSTGYDAPASRAVDGNTGGDWSAGSTTHTAEPEKQAWWQVDLGASARLDSVDVWNRLDCCADRLKDFWVMASDQPFTTDDLDQARTAPGVTAVHVGEQAGSPSKVKLPEGTRGRYVRIQLASPSNPLSLAEVQVRGSMARPNLSLGKPATQKSTGYDAPASRAVDGNTGGDWSAGSTTHTAEPEKQAWWQVDLGASARLDSVDVWNRLDCCADRLKDFWVMASDQPFTTDDLDQARTAPGVTAVHVGEQAGSPSKVKLPEGTRGRYVRIQLASPSNPLSLAEVQVRLEHHHHHHS
# Tests used:
# Assay in all cases: glycan array binding signal (z-score within array); higher = stronger binding
# Details in all cases: glycan notation: IUPAC condensed, linker removed
# [1] = molecular target: Neu5Ac(a2-6)Gal(b1-4)GlcNAc(b1-2)Man(a1-3)[Man(a1-6)]Man(b1-4)GlcNAc(b1-4)GlcNAc
# Procedure, shortened: (§1)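 Glycan array data were curated from 3228 arrays in the Consortium for Functional Glycomics database and kept only where the protein sequence was available. Glycan names were converted to IUPAC-condensed notation, and columns mapping to the same glycan were averaged. The binding signal is a within-array Z-score, averaged across arrays of the same protein sequence at different concentrations or buffers and across linkers. Negative Z-scores can be read as non-binding.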
# [2] = molecular target: Neu5Ac(a2-6)Gal(b1-4)GlcNAc(b1-2)Man(a1-3)[Neu5Ac(a2-3)Gal(b1-4)GlcNAc(b1-2)Man(a1-6)]Man(b1-4)GlcNAc(b1-4)GlcNAc
# Procedure, shortened: as §1
# [3] = molecular target: Neu5Ac(a2-6)Gal(b1-4)GlcNAc(b1-2)Man(a1-3)[Neu5Ac(a2-6)Gal(b1-4)GlcNAc(b1-2)Man(a1-6)]Man(b1-4)GlcNAc(b1-4)GlcNAc
# Procedure, shortened: as §1
# [4] = molecular target: Neu5Ac(a2-6)Gal(b1-4)GlcNAc(b1-2)Man(a1-3)[Neu5Ac(a2-6)Gal(b1-4)GlcNAc(b1-2)Man(a1-6)]Man(b1-4)GlcNAc(b1-4)[Fuc(a1-6)]GlcNAc
# Procedure, shortened: as §1
# [5] = molecular target: Neu5Ac(a2-6)Gal(b1-4)GlcNAc(b1-2)Man(a1-6)Man(b1-4)GlcNAc(b1-4)GlcNAc
# Procedure, shortened: as §1
# [6] = molecular target: Neu5Ac(a2-6)Gal(b1-4)GlcNAc(b1-2)Man(a1-6)[Gal(b1-4)GlcNAc(b1-2)Man(a1-3)]Man(b1-4)GlcNAc(b1-4)GlcNAc
# Procedure, shortened: as §1
# [7] = molecular target: Neu5Ac(a2-6)Gal(b1-4)GlcNAc(b1-2)Man(a1-6)[GlcNAc(b1-2)Man(a1-3)]Man(b1-4)GlcNAc(b1-4)GlcNAc
# Procedure, shortened: as §1
# [8] = molecular target: Neu5Ac(a2-6)Gal(b1-4)GlcNAc(b1-2)Man(a1-6)[Man(a1-3)]Man(b1-4)GlcNAc(b1-4)GlcNAc
# Procedure, shortened: as §1
# [9] = molecular target: Neu5Ac(a2-6)Gal(b1-4)GlcNAc(b1-2)[Neu5Ac(a2-6)Gal(b1-4)GlcNAc(b1-4)]Man(a1-3)[GlcNAc(b1-4)][Neu5Ac(a2-6)Gal(b1-4)GlcNAc(b1-2)[Neu5Ac(a2-6)Gal(b1-4)GlcNAc(b1-6)]Man(a1-6)]Man(b1-4)GlcNAc(b1-4)GlcNAc
# Procedure, shortened: as §1
# [10] = molecular target: Neu5Ac(a2-6)Gal(b1-4)GlcNAc(b1-2)[Neu5Ac(a2-6)Gal(b1-4)GlcNAc(b1-4)]Man(a1-3)[GlcNAc(b1-4)][Neu5Ac(a2-6)Gal(b1-4)GlcNAc(b1-4)Man(a1-6)]Man(b1-4)GlcNAc(b1-4)GlcNAc
# Procedure, shortened: as §1
# [11] = molecular target: Neu5Ac(a2-6)Gal(b1-4)GlcNAc(b1-2)[Neu5Ac(a2-6)Gal(b1-4)GlcNAc(b1-6)]Man(a1-6)[Neu5Ac(a2-6)Gal(b1-4)GlcNAc(b1-2)Man(a1-3)][GlcNAc(b1-4)]Man(b1-4)GlcNAc(b1-4)GlcNAc
# Procedure, shortened: as §1
# [12] = molecular target: Neu5Ac(a2-6)Gal(b1-4)GlcNAc(b1-3)Gal(b1-3)GlcNAc
# Procedure, shortened: as §1
# [13] = molecular target: Neu5Ac(a2-6)Gal(b1-4)GlcNAc(b1-3)Gal(b1-4)GlcNAc
# Procedure, shortened: as §1
# [14] = molecular target: Neu5Ac(a2-6)Gal(b1-4)GlcNAc(b1-3)Gal(b1-4)GlcNAc(b1-2)Man(a1-3)[Neu5Ac(a2-6)Gal(b1-4)GlcNAc(b1-3)Gal(b1-4)GlcNAc(b1-2)Man(a1-6)]GalNAc
# Procedure, shortened: as §1
# [15] = molecular target: Neu5Ac(a2-6)Gal(b1-4)GlcNAc(b1-3)Gal(b1-4)GlcNAc(b1-3)Gal(b1-4)GlcNAc
# Procedure, shortened: as §1
# [16] = molecular target: Neu5Ac(a2-6)Gal(b1-4)GlcNAc(b1-3)Gal(b1-4)GlcNAc(b1-3)Gal(b1-4)GlcNAc(b1-2)Man(a1-3)[Neu5Ac(a2-6)Gal(b1-4)GlcNAc(b1-3)Gal(b1-4)GlcNAc(b1-3)Gal(b1-4)GlcNAc(b1-2)Man(a1-6)]GalNAc
# Procedure, shortened: as §1
# [17] = molecular target: Neu5Ac(a2-6)Gal(b1-4)GlcNAc(b1-3)Gal(b1-4)GlcNAc(b1-3)GalNAc
# Procedure, shortened: as §1
# [18] = molecular target: Neu5Ac(a2-6)Gal(b1-4)GlcNAc(b1-3)Gal(b1-4)GlcNAc(b1-3)[Neu5Ac(a2-6)Gal(b1-4)GlcNAc(b1-3)Gal(b1-4)GlcNAc(b1-6)]GalNAc
# Procedure, shortened: as §1
# [19] = molecular target: Neu5Ac(a2-6)Gal(b1-4)GlcNAc(b1-3)Gal(b1-4)GlcNAc(b1-6)[Gal(b1-3)]GalNAc
# Procedure, shortened: as §1
# [20] = molecular target: Neu5Ac(a2-6)Gal(b1-4)GlcNAc(b1-3)Gal(b1-4)[Fuc(a1-3)]GlcNAc(b1-3)Gal(b1-4)[Fuc(a1-3)]GlcNAc
# Procedure, shortened: as §1
# [21] = molecular target: Neu5Ac(a2-6)Gal(b1-4)GlcNAc(b1-3)GalNAc
# Procedure, shortened: as §1
# [22] = molecular target: Neu5Ac(a2-6)Gal(b1-4)GlcNAc(b1-3)[Neu5Ac(a2-6)Gal(b1-4)GlcNAc(b1-6)]GalNAc
# Procedure, shortened: as §1
# [23] = molecular target: Neu5Ac(a2-6)Gal(b1-4)GlcNAc(b1-6)GalNAc
# Procedure, shortened: as §1
# [24] = molecular target: Neu5Ac(a2-6)Gal(b1-4)GlcNAc(b1-6)[Gal(b1-3)GlcNAc(b1-3)]Gal(b1-4)Glc
# Procedure, shortened: as §1
# [25] = molecular target: Neu5Ac(a2-6)Gal(b1-4)GlcNAc(b1-6)[Gal(b1-3)]GalNAc
# Procedure, shortened: as §1
# [26] = molecular target: Neu5Ac(a2-6)Gal(b1-4)GlcNAc6S
# Procedure, shortened: as §1
# [27] = molecular target: Neu5Ac(a2-6)GalNAc
# Procedure, shortened: as §1
# [28] = molecular target: Neu5Ac(a2-6)GalNAc(b1-4)GlcNAc
# Procedure, shortened: as §1
# [29] = molecular target: Neu5Ac(a2-6)GalNAc(b1-4)GlcNAc6S
# Procedure, shortened: as §1
# [30] = molecular target: Neu5Ac(a2-6)GlcNAc(b1-4)GlcNAc
# Procedure, shortened: as §1
# [31] = molecular target: Neu5Ac(a2-6)GlcNAc(b1-4)GlcNAc(b1-4)GlcNAc
# Procedure, shortened: as §1
binder,measurement,setting,value
B1,glycan array binding signal (z-score),[1],-0.406
same,glycan array binding signal (z-score),[2],0.664
same,glycan array binding signal (z-score),[3],-0.03
same,glycan array binding signal (z-score),[4],-0.487
same,glycan array binding signal (z-score),[5],-0.48
same,glycan array binding signal (z-score),[6],-0.503
same,glycan array binding signal (z-score),[7],-0.114
same,glycan array binding signal (z-score),[8],-0.484
same,glycan array binding signal (z-score),[9],-0.344
same,glycan array binding signal (z-score),[10],-0.202
same,glycan array binding signal (z-score),[11],-0.312
same,glycan array binding signal (z-score),[12],-0.025
same,glycan array binding signal (z-score),[13],-0.475
same,glycan array binding signal (z-score),[14],0.509
same,glycan array binding signal (z-score),[15],0.011
same,glycan array binding signal (z-score),[16],0.592
same,glycan array binding signal (z-score),[17],0.041
same,glycan array binding signal (z-score),[18],-0.028
same,glycan array binding signal (z-score),[19],-0.127
same,glycan array binding signal (z-score),[20],-0.416
same,glycan array binding signal (z-score),[21],1.01
same,glycan array binding signal (z-score),[22],-0.198
same,glycan array binding signal (z-score),[23],-0.221
same,glycan array binding signal (z-score),[24],-0.507
same,glycan array binding signal (z-score),[25],-0.302
same,glycan array binding signal (z-score),[26],0.326
same,glycan array binding signal (z-score),[27],-0.523
same,glycan array binding signal (z-score),[28],-0.505
same,glycan array binding signal (z-score),[29],-0.481
same,glycan array binding signal (z-score),[30],-0.55
same,glycan array binding signal (z-score),[31],-0.366
